Measured values taken from US20020086014A1 (Bristol-Myers Squibb, published 2002).

Molecular target: T1, mouse B7.1 expressed on LtkmB7.1 cells (mouse, UniProt Q00609 38-306)
T1 construct: whole, on cells; also called murine B7.1; B7.1 on Ltk mB7.1
T1 sequence (looked up): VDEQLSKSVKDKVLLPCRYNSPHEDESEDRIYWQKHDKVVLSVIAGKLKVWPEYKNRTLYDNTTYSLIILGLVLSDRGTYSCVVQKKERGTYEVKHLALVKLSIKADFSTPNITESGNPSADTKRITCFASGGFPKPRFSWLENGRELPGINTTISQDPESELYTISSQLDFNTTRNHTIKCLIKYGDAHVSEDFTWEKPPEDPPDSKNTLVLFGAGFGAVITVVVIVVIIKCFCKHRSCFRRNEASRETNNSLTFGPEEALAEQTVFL
Assay: binding of HPLC fractions to LtkmB7.1 cells

B1: Purified recombinant CTLA-4 extracellular fragment (receptor)
chain: not shown
notes: extracellular domain; Made by Factor Xa cleavage after the C-terminus of the extracellular domain; also called Extracellular CTLA-4 fragment; CTLA-4 fragment
- binding result: binds
